# The supplement of paper PMC8728848
# Some of the results follow.
# B1: Gal 8 (Homo sapiens) (protein)
# chain: MLSLNNLQNIIYNPVIPYVGTIPDQLDPGTLIVICGHVPSDADRFQVDLQNGSSVKPRADVAFHFNPRFKRAGCIVCNTLINEKWGREEITYDTPFKREKSFEIVIMVLKDKFQVAVNGKHTLLYGHRIGPEKIDTLGIYGKVNIHSIGFSFSSDLQSTQASSLELTEISRENVPKSGTPQLQTVSPSWDLQGHGSETFCSVLWTRVFLEIAFCRPIGLTVASFQSLPFAARLNTPMGPGRTVVVKGEVNANAKSFNVDLLAGKSKDIALHLNPRLNIKAFVRNSFLQESWGEEERNITSFPFSPGMYFEMIIYCDVREFKVAVNGVHSLEYKHRFKELSSIDTLEINGDIHLLEVRSW
# How the values were obtained:
# Test in all cases: glycan array binding signal (z-score within array); higher = stronger binding
# Conditions in all cases: glycan notation: IUPAC condensed, linker removed
# [1] = target: GlcNAc(b1-3)Gal
# In short: (§1)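 From the Consortium for Functional Glycomics database, 3228 arrays were curated, keeping only those whose protein sequence was available. Binding is given as a within-array Z-score averaged across arrays sharing a protein sequence and across linkers. Negative Z-scores can be read as non-binding.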
# [2] = target: GlcNAc(b1-3)Gal(b1-3)GalNAc
# In short: as §1
# [3] = target: GlcNAc(b1-3)Gal(b1-4)Glc
# In short: as §1
# [4] = target: GlcNAc(b1-3)Gal(b1-4)GlcNAc
# In short: as §1
# [5] = target: GlcNAc(b1-3)Gal(b1-4)GlcNAc(b1-2)Man(a1-3)[GlcNAc(b1-3)Gal(b1-4)GlcNAc(b1-2)Man(a1-6)]Man(b1-4)GlcNAc(b1-4)GlcNAc
# In short: as §1
# [6] = target: GlcNAc(b1-3)Gal(b1-4)GlcNAc(b1-2)Man(a1-3)[GlcNAc(b1-3)Gal(b1-4)GlcNAc(b1-2)Man(a1-6)]Man(b1-4)GlcNAc(b1-4)[Fuc(a1-6)]GlcNAc
# In short: as §1
# [7] = target: GlcNAc(b1-3)Gal(b1-4)GlcNAc(b1-2)[GlcNAc(b1-3)Gal(b1-4)GlcNAc(b1-6)]Man(a1-6)[GlcNAc(b1-3)Gal(b1-4)GlcNAc(b1-2)Man(a1-3)]Man(b1-4)GlcNAc(b1-4)GlcNAc
# In short: as §1
# [8] = target: GlcNAc(b1-3)Gal(b1-4)GlcNAc(b1-3)Gal(b1-4)GlcNAc
# In short: as §1
# [9] = target: GlcNAc(b1-3)Gal(b1-4)GlcNAc(b1-3)Gal(b1-4)GlcNAc(b1-2)Man(a1-3)[GlcNAc(b1-3)Gal(b1-4)GlcNAc(b1-3)Gal(b1-4)GlcNAc(b1-2)Man(a1-6)]Man(b1-4)GlcNAc(b1-4)GlcNAc
# In short: as §1
# [10] = target: GlcNAc(b1-3)Gal(b1-4)GlcNAc(b1-3)Gal(b1-4)GlcNAc(b1-2)Man(a1-3)[GlcNAc(b1-3)Gal(b1-4)GlcNAc(b1-3)Gal(b1-4)GlcNAc(b1-2)Man(a1-6)]Man(b1-4)GlcNAc(b1-4)[Fuc(a1-6)]GlcNAc
# In short: as §1
# [11] = target: GlcNAc(b1-3)Gal(b1-4)GlcNAc(b1-3)Gal(b1-4)GlcNAc(b1-2)[GlcNAc(b1-3)Gal(b1-4)GlcNAc(b1-3)Gal(b1-4)GlcNAc(b1-6)]Man(a1-6)[GlcNAc(b1-3)Gal(b1-4)GlcNAc(b1-3)Gal(b1-4)GlcNAc(b1-2)Man(a1-3)]Man(b1-4)GlcNAc(b1-4)[Fuc(a1-6)]GlcNAc
# In short: as §1
# [12] = target: GlcNAc(b1-3)Gal(b1-4)GlcNAc(b1-3)Gal(b1-4)GlcNAc(b1-3)Gal(b1-4)GlcNAc(b1-2)Man(a1-3)[GlcNAc(b1-3)Gal(b1-4)GlcNAc(b1-3)Gal(b1-4)GlcNAc(b1-3)Gal(b1-4)GlcNAc(b1-2)Man(a1-6)]Man(b1-4)GlcNAc(b1-4)GlcNAc
# In short: as §1
# [13] = target: GlcNAc(b1-3)Gal(b1-4)GlcNAc(b1-3)Gal(b1-4)GlcNAc(b1-3)Gal(b1-4)GlcNAc(b1-2)Man(a1-3)[GlcNAc(b1-3)Gal(b1-4)GlcNAc(b1-3)Gal(b1-4)GlcNAc(b1-3)Gal(b1-4)GlcNAc(b1-2)Man(a1-6)]Man(b1-4)GlcNAc(b1-4)[Fuc(a1-6)]GlcNAc
# In short: as §1
# [14] = target: GlcNAc(b1-3)Gal(b1-4)GlcNAc(b1-3)Gal(b1-4)GlcNAc(b1-3)Gal(b1-4)GlcNAc(b1-2)[GlcNAc(b1-3)Gal(b1-4)GlcNAc(b1-3)Gal(b1-4)GlcNAc(b1-3)Gal(b1-4)GlcNAc(b1-6)]Man(a1-6)[GlcNAc(b1-3)Gal(b1-4)GlcNAc(b1-3)Gal(b1-4)GlcNAc(b1-3)Gal(b1-4)GlcNAc(b1-2)Man(a1-3)]Man(b1-4)GlcNAc(b1-4)[Fuc(a1-6)]GlcNAc
# In short: as §1
# [15] = target: GlcNAc(b1-3)Gal(b1-4)GlcNAc(b1-3)Gal(b1-4)GlcNAc(b1-3)Gal(b1-4)GlcNAc(b1-3)Gal(b1-4)GlcNAc(b1-2)Man(a1-3)[GlcNAc(b1-3)Gal(b1-4)GlcNAc(b1-3)Gal(b1-4)GlcNAc(b1-3)Gal(b1-4)GlcNAc(b1-3)Gal(b1-4)GlcNAc(b1-2)Man(a1-6)]Man(b1-4)GlcNAc(b1-4)GlcNAc
# In short: as §1
# [16] = target: GlcNAc(b1-3)Gal(b1-4)GlcNAc(b1-3)Gal(b1-4)GlcNAc(b1-3)Gal(b1-4)GlcNAc(b1-3)Gal(b1-4)GlcNAc(b1-2)Man(a1-3)[GlcNAc(b1-3)Gal(b1-4)GlcNAc(b1-3)Gal(b1-4)GlcNAc(b1-3)Gal(b1-4)GlcNAc(b1-3)Gal(b1-4)GlcNAc(b1-2)Man(a1-6)]Man(b1-4)GlcNAc(b1-4)[Fuc(a1-6)]GlcNAc
# In short: as §1
# [17] = target: GlcNAc(b1-3)Gal(b1-4)GlcNAc(b1-3)Gal(b1-4)GlcNAc(b1-3)Gal(b1-4)GlcNAc(b1-3)Gal(b1-4)GlcNAc(b1-2)[GlcNAc(b1-3)Gal(b1-4)GlcNAc(b1-3)Gal(b1-4)GlcNAc(b1-3)Gal(b1-4)GlcNAc(b1-3)Gal(b1-4)GlcNAc(b1-6)]Man(a1-6)[GlcNAc(b1-3)Gal(b1-4)GlcNAc(b1-3)Gal(b1-4)GlcNAc(b1-3)Gal(b1-4)GlcNAc(b1-3)Gal(b1-4)GlcNAc(b1-2)Man(a1-3)]Man(b1-4)GlcNAc(b1-4)[Fuc(a1-6)]GlcNAc
# In short: as §1
# [18] = target: GlcNAc(b1-3)Gal(b1-4)GlcNAc(b1-3)Gal(b1-4)GlcNAc(b1-3)GalNAc
# In short: as §1
# [19] = target: GlcNAc(b1-3)Gal(b1-4)GlcNAc(b1-3)GalNAc
# In short: as §1
# [20] = target: GlcNAc(b1-3)Gal(b1-4)GlcNAc(b1-3)[GlcNAc(b1-3)Gal(b1-4)GlcNAc(b1-3)]GalNAc
# In short: as §1
# [21] = target: GlcNAc(b1-3)Gal(b1-4)GlcNAc(b1-6)[Gal(b1-3)]GalNAc
# In short: as §1
# [22] = target: GlcNAc(b1-3)Gal(b1-4)GlcNAc(b1-6)[GlcNAc(b1-3)Gal(b1-3)]GalNAc
# In short: as §1
# [23] = target: GlcNAc(b1-3)Gal(b1-4)GlcNAc(b1-6)[GlcNAc(b1-3)]Gal(b1-4)GlcNAc
# In short: as §1
binder,measurement,setting,value
B1,glycan array binding signal (z-score),[1],-0.396
same,glycan array binding signal (z-score),[2],-0.363
same,glycan array binding signal (z-score),[3],-0.338
same,glycan array binding signal (z-score),[4],-0.391
same,glycan array binding signal (z-score),[5],-0.235
same,glycan array binding signal (z-score),[6],-0.172
same,glycan array binding signal (z-score),[7],1.1
same,glycan array binding signal (z-score),[8],0.595
same,glycan array binding signal (z-score),[9],1.57
same,glycan array binding signal (z-score),[10],2.71
same,glycan array binding signal (z-score),[11],5.71
same,glycan array binding signal (z-score),[12],3.52
same,glycan array binding signal (z-score),[13],2.64
same,glycan array binding signal (z-score),[14],4.87
same,glycan array binding signal (z-score),[15],2.94
same,glycan array binding signal (z-score),[16],3.35
same,glycan array binding signal (z-score),[17],6.06
same,glycan array binding signal (z-score),[18],0.069
same,glycan array binding signal (z-score),[19],-0.355
same,glycan array binding signal (z-score),[20],-0.35
same,glycan array binding signal (z-score),[21],-0.328
same,glycan array binding signal (z-score),[22],-0.264
same,glycan array binding signal (z-score),[23],-0.355
